Laboratory results taken from PMC11894195.
No constants are given. Whether binding was seen depends on the method and setting. Binding seen in cells or lysates may run through a third protein. Some results given as binding are weak or reduced against the parent protein; the word gives no strength. Blank lines part the entries; values can stand above or below the substance they belong to.

Protein sequences, listed by entry. Tags and fused reporters are not part of them. Lines headed by an entry give the natural chain unless they say otherwise; changes in a name come on top. Chains listed by the source or under a name are the forms on record and can include a tag or linker. Residues count along the entry.
UniProt P84022: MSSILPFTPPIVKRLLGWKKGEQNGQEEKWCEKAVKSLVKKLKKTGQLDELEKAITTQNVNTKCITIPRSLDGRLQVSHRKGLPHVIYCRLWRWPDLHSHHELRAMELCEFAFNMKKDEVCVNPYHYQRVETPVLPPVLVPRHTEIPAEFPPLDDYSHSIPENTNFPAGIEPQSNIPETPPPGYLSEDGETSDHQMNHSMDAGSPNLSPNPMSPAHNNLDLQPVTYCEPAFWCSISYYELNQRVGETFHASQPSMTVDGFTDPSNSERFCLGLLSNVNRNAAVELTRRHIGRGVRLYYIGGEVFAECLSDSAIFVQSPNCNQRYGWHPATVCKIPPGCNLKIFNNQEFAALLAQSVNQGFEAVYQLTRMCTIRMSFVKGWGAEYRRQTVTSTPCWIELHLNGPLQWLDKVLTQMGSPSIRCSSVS
endogenous PINK1 (Q9BXM7, residues 78-581): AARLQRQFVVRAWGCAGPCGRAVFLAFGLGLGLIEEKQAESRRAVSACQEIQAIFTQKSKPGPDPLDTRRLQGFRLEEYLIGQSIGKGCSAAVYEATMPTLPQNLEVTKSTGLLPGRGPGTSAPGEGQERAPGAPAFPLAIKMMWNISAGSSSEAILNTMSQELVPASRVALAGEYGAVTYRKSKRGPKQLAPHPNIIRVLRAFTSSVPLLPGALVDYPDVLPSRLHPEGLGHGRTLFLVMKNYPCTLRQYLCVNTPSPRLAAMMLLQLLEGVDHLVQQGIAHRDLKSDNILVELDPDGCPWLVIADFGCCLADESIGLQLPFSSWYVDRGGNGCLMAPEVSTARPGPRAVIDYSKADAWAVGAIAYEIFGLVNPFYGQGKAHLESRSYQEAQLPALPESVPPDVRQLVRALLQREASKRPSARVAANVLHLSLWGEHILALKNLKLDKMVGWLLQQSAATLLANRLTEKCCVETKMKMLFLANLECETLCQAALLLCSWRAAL
PINK1-KD-V5 (PINK1 kinase-dead mutant, K219A/D362A/D384A) (Q9BXM7, form named): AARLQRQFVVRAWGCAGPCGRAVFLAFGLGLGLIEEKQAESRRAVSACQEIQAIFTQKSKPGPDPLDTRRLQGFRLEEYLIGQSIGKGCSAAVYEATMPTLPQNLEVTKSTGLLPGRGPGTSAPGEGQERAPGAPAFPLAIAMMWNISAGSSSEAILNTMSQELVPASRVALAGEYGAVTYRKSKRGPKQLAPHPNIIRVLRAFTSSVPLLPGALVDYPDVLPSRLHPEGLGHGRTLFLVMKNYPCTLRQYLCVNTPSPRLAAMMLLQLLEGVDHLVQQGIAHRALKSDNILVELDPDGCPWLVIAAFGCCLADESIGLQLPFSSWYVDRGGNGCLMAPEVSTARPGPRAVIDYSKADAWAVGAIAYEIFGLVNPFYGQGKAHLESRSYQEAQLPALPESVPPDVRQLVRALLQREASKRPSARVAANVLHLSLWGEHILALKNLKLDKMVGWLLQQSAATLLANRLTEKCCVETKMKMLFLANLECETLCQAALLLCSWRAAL

Legend:
[1] = target: Flag-SMAD3 (SMAD Family Member 3) (human) (UniProt P84022); experiment: co-IP; lysates of HeLa WT cells overexpressing Flag-SMAD3 and PINK1-WT-V5 or PINK1-KD-V5
[2] = target: Flag-SMAD3 (SMAD Family Member 3) (human) (UniProt P84022); experiment: co-IP; cells with Parkin expression (Supplementary Fig. S6c, d; legend not shown); co-IP of PINK1 and SMAD3
[3] = target: Flag-SMAD3 (SMAD Family Member 3) (human) (UniProt P84022); experiment: co-IP; lysates of HeLa WT cells (no Parkin) overexpressing Flag-SMAD3 and/or PINK1-MYC; reciprocal co-IP with anti-FLAG or anti-MYC and magnetic beads, Pierce IP lysis buffer, washed with TBST, western blotting
[4] = target: Flag-SMAD3 (SMAD Family Member 3) (human) (UniProt P84022); experiment: co-IP; lysates of HeLa WT cells overexpressing Flag-SMAD3, treated with/without O/A (1/1 μM) for 4 h; endogenous PINK1 detected in the precipitate

binding [1]: no binding
Substance: PINK1-KD-V5 (PINK1 kinase-dead mutant, K219A/D362A/D384A) (from UniProt Q9BXM7 78-581)

binding [2]: binds
binding [3]: binds
Substance: PINK1-MYC (PTEN-induced kinase-1) (from UniProt Q9BXM7 78-581)

binding [1]: binds
Substance: PINK1-WT-V5 (from UniProt Q9BXM7 78-581)

binding [4]: binds
Substance: endogenous PINK1 (from UniProt Q9BXM7 78-581)
